# Data taken from PubChem BioAssay (NCATS).
# Values joined by “and” are separate entries in the source; they are usually repeats but may differ in a detail not shown here. Equal entries are not always repeated. Inconclusive means that the source gave no clear call. Such entries were picked first, then a sample of the others. Potencies of inconclusive entries are doubtful fits and often do not repeat. Active and inactive are the calls of the source. Calls come from the whole dose curve; as a rule, active = well fitted cell-killing curve with a large enough effect; inconclusive = small, poorly fitted or top-dose-only effect, or effect the other way; inactive = no such curve, though single readings can be large or run the other way.
# Test: Viability qHTS for spleen associated tyrosine kinase inhibitor (SYKi) naive MV4-11 cells (AID 1963823); note: nearly all actives have a fitted effect of over 40% in size
# Details: MV4-11 AML viability, CellTiter-Glo luminescence, 72 h; viability (% of control): at 45 µM (top of the series)
# How it was run: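 Compounds were dispensed acoustically onto plates, MV4-11 cells (SYKi-naive) added at 500 per well, and plates incubated 72 hr at 37 C. CellTiter-Glo was added and luminescence measured after 10 min.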
# Potency is the fitted concentration of half-maximal effect; tags give direction and shape of the fitted curve.
SMILES,Potency,viability (% of control)
CC(=O)OC1CC2(C)C(CCC(C)C23Cc2c(O)cc4c(c2O3)CNC4=O)C(C)(C)C1O (configuration not stated),"inconclusive: 14.2 µM [cytotoxic, single point]",
Cc1ccc(-c2ncc[nH]2)cc1NC(=O)c1ccc(OCc2ccccn2)cc1,"inconclusive: 20.6 µM [cytotoxic, partial curve]",
COC(=O)C1=CO[C@@H](O)C2C(CO)=CCC12 (some centres not stated),"inconclusive: 18.4 µM [cytotoxic, partial curve]",
Cc1noc(CN(C)c2ncnc3ccc(-c4ccc5c(c4)OCO5)cc23)n1,"inconclusive: 13 µM [cytotoxic, partial curve]",
CCCC(CCC)(C(=O)OCC)C(=O)OCC,inactive,
CC1(C)CC[C@]2(C(=O)O[C@@H]3O[C@H](CO)[C@@H](O)[C@H](O)[C@H]3O)CC[C@]3(C)C(=CCC4[C@@]5(C)CC[C@H](O[C@@H]6O[C@H](C(=O)O)[C@@H](O)[C@H](O[C@@H]7O[C@H](CO)[C@H](O)[C@H](O)[C@H]7O)[C@H]6O)C(C)(C)C5CC[C@]43C)C2C1 (some centres not stated),,inactive: 81.1% [at 9.25 µM]
Cc1cc(-n2c(=O)[nH]c(=O)n(C)c2=O)ccc1Oc1ccc(SC(F)(F)F)cc1,"inconclusive: 20.6 µM [cytotoxic, partial curve]",
C=C1C(=O)O[C@@H]2CC(C)=C([C@@H](C)CCCO)[C@@H](OC(=O)C(C)C)[C@H]12,"inconclusive: 5.7 µM [cytotoxic, partial curve]",
Cc1cc(CS(=O)(=O)c2ccccc2)cc(OCc2ccc(CN3CCC[C@@H]3CO)cc2)c1,"inconclusive: 9.2 µM [cytotoxic, partial curve] and active: 16.6 µM",
CCCCCCCCCCCCCCCCCCO,inactive,
CC1=C2C[C@@]3(C)C(CCC[C@@H]3C)C(O)C2OC1=O (some centres not stated),"inconclusive: 23.1 µM [cytotoxic, partial curve]",
COC1CC(O[C@H]2CC[C@@]3(C)C(=CC[C@]4(O)C3[C@H](OC(C)=O)[C@@H](OC(=O)c3ccccc3)[C@]3(C)[C@@H](C(C)=O)CC[C@@]34O)C2)OC(C)C1OC1CC(OC)C(OC2CC(OC)C(OC3OC(C)C(OC4OC(CO)C(O)C(O)C4O)C(OC)C3O)C(C)O2)C(C)O1 (some centres not stated),,inactive: 74.5% [at 9.25 µM]
CCOC(=O)[C@H](CCc1ccccc1)N[C@@H](C)C(=O)N1Cc2cc(OC)c(OC)cc2C[C@H]1C(=O)O,inactive,
CC(=O)N(CC(O)CO)c1c(I)c(C(=O)NCCO)c(I)c(C(=O)NCC(O)CO)c1I (configuration not stated),inactive,
CCN(CC)CC(=O)Nc1c(C)cccc1C(=O)OC,inactive,
COc1cc(/C=C\c2ccc(O)cc2)cc(OC)c1,"inconclusive: 14.6 µM [cytotoxic, partial curve]",

# Test: Viability qHTS for spleen associated tyrosine kinase inhibitor (SYKi) drug resistant MV4-11 cells (AID 1963824); note: nearly all actives have a fitted effect of over 35% in size
# Details: SYKi-resistant MV4-11 viability, CellTiter-Glo, 72 h; series mostly up to 45 µM
# How it was run: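 SYK-inhibitor-resistant MV4-11 AML cells were seeded at 500 per well onto compound and cultured 72 hours (37 °C, 5% CO2). CellTiter-Glo was then added, and after 10 min at room temperature, luminescence gave viability.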
SMILES,Potency,"viability, % of control"
CCC/C=C/C=C/C1CC(O)C2(O)C(=O)OCC12 (configuration not stated),inactive,
OC(C#CCN1CCCC1)(c1ccccc1)c1ccccc1,"inconclusive: 33.5 µM [cytotoxic, single point]",
C/C=C(\C)C(=O)OCC1OC(OC2OC(COC(=O)/C(C)=C/C)C(OC3OC(CO)C(OC(=O)/C(C)=C/C)C(OC(=O)/C(C)=C/C)C3O)C(O)C2O)C(O)C(O)C1OC1OC(CO)C(OC(=O)/C(C)=C/C)C(OC(=O)/C(C)=C/C)C1O (configuration not stated),,inactive: 58.7% [at 9.25 µM]
CC(CCC1(O)OC2CC3C4CC=C5CC(O[C@@H]6O[C@H](CO)[C@@H](O[C@@H]7O[C@H](CO)[C@@H](O)[C@H](O)[C@H]7O)[C@H](O)[C@H]6O[C@@H]6O[C@@H](C)[C@H](O)[C@@H](O)[C@H]6O)CCC5(C)C4CCC3(C)C2C1C)CO[C@@H]1O[C@H](CO)[C@@H](O)[C@H](O)[C@H]1O (some centres not stated),"inconclusive: 6.18 µM [cytotoxic, single point]",
COC(=O)c1ccc(O)cc1,inactive,
CCC(C)C1NC(=O)C2CCCN2C(=O)C(CC(O)CO)OC(=O)CCNC(=O)C(C)N(C)C(=O)C(C(C)C)N(C)C1=O (configuration not stated),"inconclusive: 2.43 µM [cytotoxic, partial curve]",
C=CC1C(OC2OC(CO)C(O)C(O)C2O)OC=C2C(=O)N3C(C(=O)O)Cc4c([nH]c5ccccc45)C3CC21 (configuration not stated),"inconclusive: 7.96 µM [cytotoxic, partial curve, poor fit]",
Cc1ccc(Sc2cncc3sc(C(N)=O)cc23)cc1,"inconclusive: 14.6 µM [cytotoxic, partial curve, poor fit]",
CC(=O)O[C@@H]1[C@H](O[C@@H]2O[C@H](CO)[C@@H](O)[C@H](O)[C@H]2O)[C@@H](O[C@@H]2O[C@@H](C)[C@H](O)[C@@H](O[C@@H]3O[C@H](CO)[C@@H](O)[C@H](O)[C@H]3O)[C@H]2O)[C@H](OC(=O)C23CCC4(C)C(=CCC5C6(C)CC(O)C(O[C@@H]7O[C@H](C(=O)O)[C@@H](O)[C@H](O)[C@H]7O)C(C)(C(=O)O)C6CCC54C)C2CC(C)(C)CC3O)O[C@@H]1C (some centres not stated),,inactive: 102% [at 9.25 µM]
CC(C)C1(O)NC(=O)C(CC2(O)c3ccccc3N3C(=O)C(C)(C)NC32)n2c1nc1ccccc1c2=O (configuration not stated),"inconclusive: 7.09 µM [cytotoxic, partial curve]",
Cc1ccc(S(=O)(=O)NC(=O)NN2CCCCCC2)cc1,inactive,
COc1c2c(c(C)c3c1C(=O)OC3)O[C@@]1(C)CC(O)C(C(C)(C)O)[C@](C)(CCC(=O)O)[C@H]1C2 (some centres not stated),active: 7.09 µM,
CC1(O)CCC2C(C(=O)O)=COC(OC3OC(CO)C(O)C(O)C3OC(=O)/C=C/c3ccc(O)cc3)C21 (configuration not stated),inactive,
Cc1nc(Nc2cnn(C3CCNCC3)c2)nc2c1N(C)C(=O)c1cc3ccccc3cc1N2C,active: 6.51 µM,
CC(c1ncncc1F)C(O)(Cn1cncn1)c1ccc(F)cc1F (configuration not stated),"inconclusive: 0.0291 µM [cytotoxic, single point]",
CN1CCC[C@@H]1c1cccnc1,inactive,
CCOc1ccc(-n2c([C@@H](C)N(Cc3cccnc3)C(=O)Cc3ccc(F)c(C(F)(F)F)c3)nc3ncccc3c2=O)cc1,"inconclusive: 20.9 µM [cytotoxic, partial curve]",
CN(CCCOc1ccc(Cc2ccccc2)cc1)CCC(=O)O,"inconclusive: 32.6 µM [cytotoxic, partial curve, poor fit]",

SMILES,Potency,"viability, % of control"
CC(=O)OC1CC(C(C)(C)O)OC2CCC3(C)OC4=C(C(=O)C=C5C(C)C(OC(C)=O)C6(C)C(C)OC546)C(O)C3C12C (configuration not stated),"inconclusive: 0.0014 µM [cytotoxic, full curve, poor fit]",
CC(=O)O[C@@]12CO[C@@H]1C[C@H](O)[C@@]1(C)C(=O)[C@H](O)C3=C(C)[C@@H](OC(=O)[C@H](O)[C@@H](NC(=O)OC(C)(C)C)c4ccccc4)C[C@@](O)([C@@H](OC(=O)c4ccccc4)C12)C3(C)C (some centres not stated),"inconclusive: 0.0036 µM [cytotoxic, full curve]",
Cc1ccc(OC[C@H](O)[C@H](C)NC(C)C)c2c1CCC2,"inconclusive: 29.1 µM [cytotoxic, single point]",
CC(C)(C)NC(=O)[C@@H](c1cccnc1)N(C(=O)c1ccco1)c1ccc(C(C)(C)C)cc1,"inconclusive: 14.6 µM [cytotoxic, partial curve]",
CCN(Cc1ccccc1)C(=O)Cn1c(=O)n(C)c2cnc(-c3ccccc3)nc21,"inconclusive: 5.17 µM [cytotoxic, partial curve]",
C=C1CCC2C(C)(C)CCC[C@]2(C)[C@H]1C/C=C(\CO)C(=O)C(=O)O (some centres not stated),"inconclusive: 12.8 µM [cytotoxic, single point]",
CC(=O)OC1CC2(C)C(CCC(C)C23Cc2c(O)cc4c(c2O3)CNC4=O)C(C)(C)C1O (configuration not stated),"inconclusive: 0.0045 µM [rising, full curve]",
Cc1ccc(-c2ncc[nH]2)cc1NC(=O)c1ccc(OCc2ccccn2)cc1,"inconclusive: 20.6 µM [cytotoxic, single point]",
COC(=O)C1=CO[C@@H](O)C2C(CO)=CCC12 (some centres not stated),"inconclusive: 8.2 µM [cytotoxic, partial curve]",
Cc1noc(CN(C)c2ncnc3ccc(-c4ccc5c(c4)OCO5)cc23)n1,"inconclusive: 13 µM [cytotoxic, partial curve]",
CCCC(CCC)(C(=O)OCC)C(=O)OCC,"inconclusive: 13.3 µM [cytotoxic, partial curve, poor fit]",
CC1(C)CC[C@]2(C(=O)O[C@@H]3O[C@H](CO)[C@@H](O)[C@H](O)[C@H]3O)CC[C@]3(C)C(=CCC4[C@@]5(C)CC[C@H](O[C@@H]6O[C@H](C(=O)O)[C@@H](O)[C@H](O[C@@H]7O[C@H](CO)[C@H](O)[C@H](O)[C@H]7O)[C@H]6O)C(C)(C)C5CC[C@]43C)C2C1 (some centres not stated),,inactive: 106% [at 9.25 µM]
Cc1cc(-n2c(=O)[nH]c(=O)n(C)c2=O)ccc1Oc1ccc(SC(F)(F)F)cc1,"inconclusive: 25.9 µM [cytotoxic, single point]",
C=C1C(=O)O[C@@H]2CC(C)=C([C@@H](C)CCCO)[C@@H](OC(=O)C(C)C)[C@H]12,active: 4.04 µM,
Cc1cc(CS(=O)(=O)c2ccccc2)cc(OCc2ccc(CN3CCC[C@@H]3CO)cc2)c1,"inconclusive: 9.2 µM [cytotoxic, partial curve]",
CCCCCCCCCCCCCCCCCCO,inactive,
CC1=C2C[C@@]3(C)C(CCC[C@@H]3C)C(O)C2OC1=O (some centres not stated),"inconclusive: 14.6 µM [cytotoxic, partial curve]",
COC1CC(O[C@H]2CC[C@@]3(C)C(=CC[C@]4(O)C3[C@H](OC(C)=O)[C@@H](OC(=O)c3ccccc3)[C@]3(C)[C@@H](C(C)=O)CC[C@@]34O)C2)OC(C)C1OC1CC(OC)C(OC2CC(OC)C(OC3OC(C)C(OC4OC(CO)C(O)C(O)C4O)C(OC)C3O)C(C)O2)C(C)O1 (some centres not stated),,inactive: 66.2% [at 9.25 µM]
